# The campaign covered roughly 410,000 compounds. About 5,000 (1.2%) were called active. This list was built around the results that the source calls inconclusive (neither active nor inactive); the mix of calls is not that of the screen. Calls come from the whole dose curve; as a rule, active = well fitted inhibition curve with a large enough effect; inconclusive = small, poorly fitted or top-dose-only effect; inactive = no such curve, though single readings can be large or run the other way. Where the call is inconclusive, the potency comes from a doubtful curve fit.
# Assay: qHTS for Inhibitors of TGF-b; note: nearly all actives have a fitted effect of over 65% in size
# Settings: HepG2 CAGA-GFP TGF-b/SMAD3 reporter, GFP fluorescence, 18 h, TGF-beta stimulated, 500 pg/mL final; series mostly up to 46.1 µM
# Method in brief: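 GFP signal (ex488/em500-530) from TGF-beta-stimulated HEPG2 CAGA-GFP cells, 500 pg/mL final, 18 h at 37 degrees C in DMEM plus 1% FBS, normalized to unstimulated and DMSO-stimulated controls.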
# Potency is the fitted concentration of half-maximal effect; tags give direction and shape of the fitted curve.
row,SMILES,Potency
1,COc1cc(CN(C2CCCCC2C)S(=O)(=O)c2ccc(S(=O)(=O)NC3CC3)cc2)cc(OC)c1OC (stereo unspecified),"inconclusive: 35.5 µM [inhibitor, single point]"
2,COc1ccc(-n2c(-c3ccc(Cl)cc3)cc3c2CC(C)(C)CC3=O)c(OC)c1,active: 17.8 µM
3,CC(=O)Oc1ccc(/C=C2/CCc3ccccc3C2=O)cc1,"inconclusive: 22.4 µM [inhibitor, single point]"
4,CCCCCCc1c(O)nc(SCC(=O)O)[nH]c1=O,"inconclusive: 25.1 µM [inhibitor, single point]"
5,Cc1ccccc1Cn1c(=O)n(CC2CCC(C(=O)NCCc3ccccc3)CC2)c(=O)c2ccccc21 (stereo unspecified),inactive
6,CC(C)c1ccc(NS(=O)(=O)c2ccc3[nH]cc(C(=O)NC4CCCCC4)c(=O)c3c2)cc1,"inconclusive: 10 µM [inhibitor, single point]"
7,CCOc1ccc(CNCCNC(=O)c2nonc2N)cc1,"inconclusive: 35.5 µM [inhibitor, single point]"
8,CCOc1ccc(C(=O)NCC(=O)NCCSc2ccc(Br)cc2)cc1OCC,"inconclusive: 20 µM [inhibitor, single point]"
9,CC1CCCCC1NC(=S)Nc1ccc(Cl)cc1Cl (stereo unspecified),"inconclusive: 35.5 µM [inhibitor, single point]"
10,COc1ccc(-c2nc3ccccn3c2NC2CCCCC2)cc1SC1CCCCC1,"inconclusive: 35.5 µM [inhibitor, single point]"
11,FC(F)Sc1ccc(NC(=S)NCC2CCCCC2)cc1,"inconclusive: 35.5 µM [inhibitor, single point]"
12,CCCCNS(=O)(=O)c1ccc2nc(SCC(=O)Nc3cc(C)cc(C)c3)[nH]c2c1,"inconclusive: 35.5 µM [inhibitor, single point]"
13,CC1(C)CC(NC(=O)c2cccc(S(=O)(=O)N(Cc3ccccc3)c3ccccc3)c2)CC(C)(C)N1,"inconclusive: 35.5 µM [inhibitor, single point]"
14,CC1CC2=C(NC(=S)NC2c2cccc(F)c2)/C(=C/c2cccc(F)c2)C1 (stereo unspecified),"inconclusive: 35.5 µM [inhibitor, single point]"
15,COc1ccc(Nc2nc(N3CCCCC3)nc3ccccc23)c(OC)c1,"inconclusive: 35.5 µM [inhibitor, single point]"
16,CC(C)n1cc(/C=N/Nc2ccc(C(=O)O)cc2)c2ccccc21,inactive
17,COc1cc2c(cc1OC)-c1nnc(-c3ccco3)n1C1(CCCC1)C2,inactive
18,CCCCNc1c(-c2ccc(OC)c(SC(C)CC)c2)nc2ccc(Cl)cn12 (stereo unspecified),active: 10 µM
19,C[C@@H](CO)NC(=O)[C@H]1O[C@@H](n2ccc(=O)[nH]c2=O)[C@H](O)[C@@H]1O,inactive
20,C=CCn1c(=N)n(CC(=O)c2ccc(Br)s2)c2ccccc21,"inconclusive: 35.5 µM [inhibitor, single point]"
21,O=C(CCl)N1CCN2C(=O)c3ccccc3C12c1ccc(Cl)cc1 (stereo unspecified),"inconclusive: 35.5 µM [inhibitor, single point]"

row,SMILES,Potency
1,Cc1cccc(C)c1NC(=O)C(c1ccccc1)N1CCN(C/C=C/c2ccccc2)CC1 (stereo unspecified),"inconclusive: 25.1 µM [inhibitor, single point]"
2,CC1Sc2ccc(S(=O)(=O)CCC(=O)NCc3ccc(Cl)cc3)cc2NC1=O (stereo unspecified),"inconclusive: 12.6 µM [inhibitor, partial curve, poor fit]"
3,CCCCNC(=O)c1sc2nc(C)cc(COC)c2c1-n1cccc1,"inconclusive: 3.98 µM [inhibitor, full curve, poor fit]"
4,c1ccc(-c2nc(NC3CCCC3)c3ccccc3n2)cc1,"inconclusive: 15.8 µM [inhibitor, partial curve]"
5,C1=CC2=NC34CCCCC3CC3=C(CCCC3)N4C2=CC1=NC1CCCCC1 (stereo unspecified),"inconclusive: 10 µM [inhibitor, partial curve, poor fit]"
6,Fc1ccccc1-c1nc(NC2CCCC2)c2ccccc2n1,"inconclusive: 12.6 µM [inhibitor, single point]"
7,COC(=O)c1ccc(NS(=O)(=O)c2ccc3[nH]c4c(c3c2)CCCCC4)cc1,"inconclusive: 14.1 µM [inhibitor, single point]"
8,O=C(NCCc1cccs1)c1ccc(CS(=O)Cc2ccc(Cl)cc2)o1 (stereo unspecified),inactive
9,O=S(=O)(c1ccc(Cl)cc1)n1c(Cc2ccccc2)nc2ccccc21,"inconclusive: 3.98 µM [inhibitor, single point]"
10,CCc1ccc(-c2csc(NC(=O)C3CC(=O)N(c4ccc5c(c4)OCCO5)C3)n2)cc1 (stereo unspecified),"inconclusive: 25.1 µM [inhibitor, single point]"
11,O=C(NCCc1ccc(F)cc1)C(=O)NCC(c1cccs1)S(=O)(=O)c1cccs1 (stereo unspecified),inactive
12,CS(=O)(=O)N1CCC(C(=O)Nc2ccc(F)c(Cl)c2)CC1,inactive
13,COc1ccc(-c2cc(-c3ccccc3)nc3c2COc2ccc(Cl)cc2-3)cc1,"inconclusive: 1 µM [inhibitor, partial curve, poor fit]"
14,Cc1cc(F)ccc1S(=O)(=O)Nc1ccccc1C(=O)Nc1ccccc1-c1nc2ccccc2[nH]1,"inconclusive: 7.08 µM [inhibitor, full curve, poor fit]"
15,O=C1[C@H](Cc2ccccc2)NCCCC[C@@H](c2ccc(Cl)cc2)N1Cc1ccc(Cl)cc1,"inconclusive: 35.5 µM [inhibitor, single point]"
16,COc1ccc(C2c3[nH]c4ccccc4c3C[C@H]3C(=O)N(C4CCN(Cc5ccccc5)CC4)CC(=O)N23)cc1OC (stereo partly specified),"inconclusive: 35.5 µM [inhibitor, single point]"
17,COc1cccc(NC(=S)Nc2cc(C(=O)O)ccc2N2CC3CC(C2)c2cccc(=O)n2C3)c1 (stereo unspecified),inactive
18,C=C(C)C(=O)OC1(C(F)(F)F)Oc2cc(C)ccc2NC1=O (stereo unspecified),"inconclusive: 14.1 µM [inhibitor, partial curve, poor fit]"
19,COc1nccnc1NS(=O)(=O)c1ccc(NC(=S)NC(=O)c2cccc(F)c2)cc1,inactive
20,O=C(Nc1ccc(Cl)cc1)c1ccc2c(c1)N(Cc1ccccc1)C(=O)c1ccccc1S2(=O)=O,"inconclusive: 6.31 µM [inhibitor, full curve]"
